Results as given in PubChem BioAssay AID588855 (National Center for Advancing Translational Sciences (NCATS), 2011).
About 5,000 (1.2%) of roughly 410,000 compounds were called active. Inconclusive results, whose numbers are uncertain, are shown with a selection of clear calls. Calls follow the shape of the dose curve; as a rule, active = well fitted inhibition curve with a large enough effect; inconclusive = small, poorly fitted or top-dose-only effect; inactive = no such curve, though single readings can be large or run the other way. A potency beside an inconclusive call is a rough fit, not a confirmed value.

assay: qHTS for Inhibitors of TGF-b; conditions: HepG2 CAGA-GFP TGF-b/SMAD3 reporter, GFP fluorescence, 18 h, TGF-beta stimulated, 500 pg/mL final; series mostly up to 46.1 µM; activity, negative = inhibition: at the top concentration; also: nearly all actives have a fitted effect of over 65% in size
Summary of the method: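 Smad-responsive CAGA-GFP expression was quantified in HEPG2 cells exposed to compounds and 500 pg/mL final TGF-beta for 18 h at 37 degrees C; unstimulated wells defined full inhibition.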
% is scaled to controls: 0 for no effect and ±100 for the full control effect; potency is read from the fitted curve at half-maximal effect; tags tell the direction and shape of the fitted curve.

Question: Which “activity, negative = inhibition” value does the source give for `N#CCCN1CCN(Cc2cc(-c3ccccc3)ccc2O)CC1` here?
Answer: inactive: 0.387%

Question: For `O=C(NCc1cccc(F)c1)c1[nH]c(C(F)(F)F)nc1-c1ccccc1`, which Potency is on record?
Answer: inconclusive: 12.6 µM [inhibitor, single point]

Question: For `COC(=O)C1C(C(=O)OC)C1(c1ccccc1)c1ccccc1` (centres undefined), which “activity, negative = inhibition” value is on record?
Answer: inactive: 12.6%

Question: With `CC(C)OCCCNc1ncnc2sc3c(c12)CCCC3` as the molecule, how does the Potency read?
Answer: inconclusive: 12.6 µM [inhibitor, partial curve, poor fit]

Question: With `COc1cc2[nH]c(=O)n(CCCC(=O)N3CC=C(c4ccccc4)CC3)c(=O)c2cc1OC` as the molecule, how does the Potency read?
Answer: inconclusive: 0.224 µM [inhibitor, full curve, poor fit]

Question: For `Cn1c(=O)c(C(=O)Nc2ccccn2)c(O)c2ccccc21`, which “activity, negative = inhibition” value is on record?
Answer: inactive: -3.25%

Question: Which Potency does the source give for `Cc1cc(C(C)(C)C)oc1C(=O)N(CC(=O)NC1CCCC1)c1c(C)cccc1C` here?
Answer: inconclusive: 17.8 µM [inhibitor, single point]

Question: For `CC(NC(=O)CSC(=S)N(C)C)C12CC3CC(CC(C3)C1)C2` (centres undefined), which Potency is on record?
Answer: inconclusive: 11.2 µM [inhibitor, partial curve]

Question: For `CCc1ccc(CNC(=O)c2cc3n(n2)CCCN(Cc2ccccc2)C3=O)cc1`, which Potency is on record?
Answer: inconclusive: 20 µM [inhibitor, partial curve, poor fit]

Question: Which Potency does the source give for `Cc1cc(-c2cn3ccccc3n2)c(C)n1-c1ccccc1` here?
Answer: inconclusive: 35.5 µM [inhibitor, single point]

Question: Which “activity, negative = inhibition” value does the source give for `CN(C)c1nc(NS(=O)(=O)c2ccc(Cl)cc2)nc(N(C)C)n1` here?
Answer: inactive: 12%

Question: For `O=C(OCc1ccc(C(=O)c2ccccc2)cc1)c1cccc(-c2nnc(-c3ccccc3)o2)c1`, which “activity, negative = inhibition” value is on record?
Answer: inactive: -5.85%

Question: Which “activity, negative = inhibition” value does the source give for `CC(C)(C)n1nnnc1C(c1cccs1)N1CCN(Cc2ccccc2)CC1` (centres undefined) here?
Answer: inactive: 23.8%

Question: Which “activity, negative = inhibition” value does the source give for `O=C(COc1ccccc1)Nc1ccc(N2CCN(C(=O)c3ccco3)CC2)cc1` here?
Answer: inactive: -10.3%

Question: With `c1ccc(C(c2ccccc2)N2CCN(Cc3nnnn3C3CCCC3)CC2)cc1` as the molecule, how does the Potency read?
Answer: inconclusive: 35.5 µM [inhibitor, single point]

Question: For `CN(N=Cc1cccc2cccnc12)c1ccc([N+](=O)[O-])cc1[N+](=O)[O-]`, which “activity, negative = inhibition” value is on record?
Answer: inactive: -8.95%

Question: Which Potency does the source give for `CCn1c(C)nc2cc(S(=O)(=O)N3CCCC3)ccc21` here?
Answer: inconclusive: 12.6 µM [inhibitor, partial curve]

Question: With `O=C(Nc1cccc(Cl)c1Cl)c1ccco1` as the molecule, how does the Potency read?
Answer: inconclusive: 25.1 µM [inhibitor, single point]

Question: For `CN1CCN(S(=O)(=O)c2cc([N+](=O)[O-])ccc2N2CCCCCC2)CC1`, which Potency is on record?
Answer: inconclusive: 22.4 µM [inhibitor, single point]

Question: For `C[C@H]1CN=C(Nc2ccccc2)N1CC1CCCCCC1`, which “activity, negative = inhibition” value is on record?
Answer: inactive: -4.19%

Question: Which Potency does the source give for `COc1ccc(NS(=O)(=O)c2cc(C)ccc2NC(=O)c2cc(C)oc2C)cc1` here?
Answer: inconclusive: 12.6 µM [inhibitor, partial curve, poor fit]

Question: With `CN(C1CCCCC1)S(=O)(=O)c1ccc(NC(=O)Cn2nc(-c3ccc(F)cc3)ccc2=O)cc1` as the molecule, how does the Potency read?
Answer: inconclusive: 7.94 µM [inhibitor, partial curve, poor fit]

Question: For `O=[N+]([O-])c1cc(C(F)(F)F)ccc1NCCc1c[nH]c2ccccc12`, which Potency is on record?
Answer: inconclusive: 15.8 µM [inhibitor, single point]

Question: For `CC1(NC(=S)Nc2ccc3ccccc3c2)CCS(=O)(=O)C1` (centres undefined), which “activity, negative = inhibition” value is on record?
Answer: inactive: -25%

Question: Which “activity, negative = inhibition” value does the source give for `COc1ccc(N/N=C(\C#N)C(=N)N2CCCCC2)cc1` here?
Answer: inactive: -0.394%

Question: Which “activity, negative = inhibition” value does the source give for `COc1ccc(-c2nc3ccccc3c(=O)n2N)cc1` here?
Answer: inactive: -7.45%

Question: With `CCOc1cccc(C(=O)NC(=S)Nc2cccc(C)c2)c1` as the molecule, how does the Potency read?
Answer: inconclusive: 10 µM [inhibitor, partial curve, poor fit]

Question: With `Fc1cccc(Nc2ncnc3c2cnn3-c2ccccc2)c1` as the molecule, how does the Potency read?
Answer: inconclusive: 25.1 µM [inhibitor, single point]

Question: For `C=CC[C@@H](Cc1ccc(F)cc1)C(=O)OC[C@@H]1CCCN1C(=O)[C@H](CC=C)CC(=O)N[C@H](CO)Cc1ccccc1`, which Potency is on record?
Answer: inconclusive: 11.2 µM [inhibitor, partial curve, poor fit]

Question: For `Nc1nn2cc(-c3ccccc3)nc2c2ccccc12`, which Potency is on record?
Answer: inconclusive: 35.5 µM [inhibitor, single point]

Question: With `Cc1ccc(Cn2nnc3c(=O)[nH]c(C4CCCN(C(=O)Nc5ccc(F)cc5F)C4)nc32)cc1` (centres undefined) as the molecule, how does the “activity, negative = inhibition” value read?
Answer: inactive: 0.424%

Question: Which “activity, negative = inhibition” value does the source give for `Cc1ccc(-c2cc(C(=O)Nc3ccc(S(=O)(=O)N4CC(C)OC(C)C4)cc3)[nH]n2)c(O)c1` (centres undefined) here?
Answer: inactive: -27.8%

Question: For `COc1ccc(NC(=O)CSc2cc(C)ccc2C)cn1`, which “activity, negative = inhibition” value is on record?
Answer: inactive: 0.123%

Question: Which Potency does the source give for `O=S(=O)(NCc1ccccc1)NCc1ccc(Cl)cc1Cl` here?
Answer: inconclusive: 28.2 µM [inhibitor, single point]

Question: With `CCCN(CCC)CCCNC(=O)C1CCCN(Cc2nc(-c3ccc(Cl)cc3)oc2C)C1` (centres undefined) as the molecule, how does the Potency read?
Answer: inconclusive: 10 µM [inhibitor, partial curve]

Question: Which Potency does the source give for `COc1ccccc1C1CCN(c2cc(O)ccc2[N+](=O)[O-])CC1` here?
Answer: inconclusive: 35.5 µM [inhibitor, single point]

Question: With `COc1ccc(Nc2cc(C)nc3c(C)cccc23)cc1OC` as the molecule, how does the “activity, negative = inhibition” value read?
Answer: inactive: -9.09%

Question: Which Potency does the source give for `CCOC(=O)Cc1ccc(NC(=O)N2CCSc3ccccc32)cc1` here?
Answer: inconclusive: 35.5 µM [inhibitor, single point]

Question: For `Cc1ccc2sc(NNC(=O)c3cc(=O)c4ccccc4o3)nc2c1C`, which Potency is on record?
Answer: inconclusive: 15.8 µM [inhibitor, single point]

Question: Which “activity, negative = inhibition” value does the source give for `O=C(CN(Cc1ccc(F)cc1)C(=O)CCC(=O)Nc1ccccn1)NCc1ccc(F)cc1` here?
Answer: inactive: 13%

Question: For `O=C(c1ccc2c(c1)C(=O)N(Cc1ccco1)C2=O)N1CCOCC1`, which Potency is on record?
Answer: inconclusive: 28.2 µM [inhibitor, partial curve, poor fit]

Question: With `Cc1ccc(-c2nc(CS(=O)CC(=O)NCc3ccccc3Cl)c(C)o2)cc1` (centres undefined) as the molecule, how does the Potency read?
Answer: inconclusive: 12.6 µM [inhibitor, partial curve, poor fit]

Question: For `CC[C@]12c3[nH]c4ccc(Cl)cc4c3CCN1C(=O)[C@@H](CC(=O)NCc1cccc(C(F)(F)F)c1)C[C@@H]2C(=O)N1CCN(C(=O)c2ccco2)CC1`, which Potency is on record?
Answer: active: 12.6 µM

Question: For `CCC(CC)C(=O)N(CCc1ccc(OC)cc1)Cc1nc2ccccc2c(=O)[nH]1`, which Potency is on record?
Answer: inconclusive: 15.8 µM [inhibitor, single point]

Question: For `COc1cccc(NC(=O)CSc2nc3c([nH]c4ccccc43)c(=O)n2-c2cc(C)cc(C)c2)c1`, which “activity, negative = inhibition” value is on record?
Answer: inactive: 0.698%

Question: For `CC(=O)c1ccc(S(=O)(=O)N2CCn3cccc3C2c2ccccc2F)cc1` (centres undefined), which “activity, negative = inhibition” value is on record?
Answer: inactive: -23.3%

Question: For `C#CCN(C(=O)C1CCC(=O)N(CCc2cccc(F)c2)C1)C1CCCCC1` (centres undefined), which “activity, negative = inhibition” value is on record?
Answer: inactive: -0.927%

Question: Which “activity, negative = inhibition” value does the source give for `O=C(C[C@@H]1C/C=C\CCC(=O)O[C@H](c2ccccc2)CNC1=O)N[C@H](CO)Cc1ccccc1` here?
Answer: inactive: -17.2%

Question: Which “activity, negative = inhibition” value does the source give for `CCN(CC)CCCNC(=O)c1cc(-c2ccccc2)c(N2CCCCC2)s1` here?
Answer: inactive: 3.76%

Question: For `CCC1CCCCN1S(=O)(=O)c1ccc(NC(=O)c2nc(S(C)(=O)=O)ncc2Cl)cc1` (centres undefined), which Potency is on record?
Answer: active: 4.47 µM

Question: For `NC(=S)NN=C(Cc1ccccc1)Cc1ccccc1`, which Potency is on record?
Answer: inconclusive: 12.6 µM [inhibitor, partial curve]

Question: For `CN(C1CCCCC1)S(=O)(=O)c1ccc(-c2ccccn2)s1`, which Potency is on record?
Answer: inconclusive: 3.16 µM [inhibitor, single point]

Question: With `Cc1cc(C)c(OCCCCN(C)Cc2ccccc2)c(C)c1` as the molecule, how does the Potency read?
Answer: inconclusive: 35.5 µM [inhibitor, single point]

Question: For `CCCCC#Cc1ccc(C(=O)NNC(=O)Nc2cc(Cl)cc(Cl)c2)o1`, which Potency is on record?
Answer: inconclusive: 20 µM [inhibitor, partial curve, poor fit]

Question: With `Cc1nn(-c2nnc(C)c(=O)[nH]2)c(C)c1SCC(=O)Nc1ccc(C(C)C)cc1` as the molecule, how does the Potency read?
Answer: inconclusive: 1 µM [inhibitor, partial curve]

Question: Which “activity, negative = inhibition” value does the source give for `CC(C)(C)c1ccc(OCc2nc3ccccc3n2CCOc2ccccc2)cc1` here?
Answer: inactive: -12.9%

Question: Which Potency does the source give for `C#CCOCCOCCOCCNc1nc(N2CCN(C(=O)CCCCCCCCCCNC(=O)[C@@H](CCC(=O)O)n3cc(CCCCCN)nn3)CC2)nc(N2CCN(C(=O)CCCCCCCCCCNC(=O)[C@H](CO)n3cc(CCCCCN)nn3)CC2)n1` here?
Answer: inconclusive: 3.55 µM [inhibitor, full curve, poor fit]

Question: For `CCCS(=O)(=O)Nc1ccc(N2CCCCC2)c(S(=O)(=O)Nc2ccccc2OC)c1`, which Potency is on record?
Answer: inconclusive: 11.2 µM [inhibitor, partial curve, poor fit]

Question: Which Potency does the source give for `O=C(/C=C1\NC2(CCCC2)Cc2ccccc21)C(=O)N/N=C/c1ccc(O)c(O)c1` here?
Answer: inconclusive: 35.5 µM [inhibitor, single point]

Question: With `CCN1CCN(Cc2c(O)ccc3c2O/C(=C\C=C\c2ccccc2OC)C3=O)CC1` as the molecule, how does the “activity, negative = inhibition” value read?
Answer: inactive: 92.5%

Question: For `COC(=O)C(CCCN1C(=O)c2ccccc2C1=O)(NC(C)=O)c1nn[nH]n1` (centres undefined), which Potency is on record?
Answer: inconclusive: 3.98 µM [inhibitor, single point]

Question: For `O=c1c2c(nc(NCCO)n1CC1CCCCC1)-c1ccccc1CC21CCCC1`, which Potency is on record?
Answer: inconclusive: 22.4 µM [inhibitor, single point]

Question: For `Oc1ccc2c(c1)c1c3n2CCNC3CCC1` (centres undefined), which Potency is on record?
Answer: inconclusive: 4.47 µM [inhibitor, single point]

Question: Which “activity, negative = inhibition” value does the source give for `COc1ccc(CNC(=O)c2cc3c(=O)n(Cc4cccnc4)ccc3nc2C)cc1` here?
Answer: inactive: 3.1%

Question: Which “activity, negative = inhibition” value does the source give for `CC(C)C(NC(=O)c1ccc(F)cc1)C(=O)N1CCN(C(=O)c2ccco2)CC1` (centres undefined) here?
Answer: inactive: 4.96%

Question: Which “activity, negative = inhibition” value does the source give for `COc1ccccc1CNC(=O)c1cc2c(=O)oc3ccc(C)cc3c2s1` here?
Answer: inactive: 25.4%

Question: Which Potency does the source give for `Cc1onc(-c2ccc3c(c2)OCO3)c1-c1ccc2[nH]ccc2c1` here?
Answer: active: 12.6 µM

Question: Which Potency does the source give for `O=C(C1CCN(c2ncnc3c2nc2n3CCCCC2)CC1)N1CCN(c2ccccc2F)CC1` here?
Answer: inconclusive: 17.8 µM [inhibitor, single point]

Question: With `CCOc1ccc2oc(=O)cc(CN3CCN(C(=O)c4ccc(OC)c(OC)c4)CC3)c2c1` as the molecule, how does the Potency read?
Answer: inconclusive: 35.5 µM [inhibitor, single point]
